# The supplement of paper PMC3334620
# Over roughly 33,000 sequences, “E-score (-0.5 to 0.5)” has its median near -0.04; the highest 2% begin near 0.36. The list shows a part of the results.
# Target: T1, Hmlalpha2 (UniProt P0CY09)
# T1 sequence: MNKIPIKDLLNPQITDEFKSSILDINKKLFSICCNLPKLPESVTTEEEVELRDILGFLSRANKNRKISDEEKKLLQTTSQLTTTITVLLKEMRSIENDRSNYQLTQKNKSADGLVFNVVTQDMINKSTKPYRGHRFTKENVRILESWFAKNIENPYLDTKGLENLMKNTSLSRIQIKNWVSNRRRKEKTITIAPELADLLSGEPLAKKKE
# Assay: PBM E-score (8-mer binding enrichment) (E-score (-0.5 to 0.5)); higher = stronger / more preferred TF binding; most listed sequences are background and not binding sites
# Details: protein concentration: 200 nM; construct: GST-full length
# Procedure: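 Universal 'all 10-mer' protein binding microarrays (Agilent AMADID 015681) probed with GST-tagged S. cerevisiae TFs (full-length or DBD) made by in vitro transcription/translation (PURExpress), about 100-200 nM. Bound TF was detected with fluorescent anti-GST. Each ungapped 8-mer (which stands for itself and its reverse complement) is scored by the PBM enrichment score (E-score), a modified Wilcoxon-Mann-Whitney statistic from -0.5 to +0.5, computed with the Universal PBM Analysis Suite. Scale: above 0.35 generally sequence-specific binding.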
row,Sequence,PBM E-score
1,GTTTGCCA,-0.00173
2,ACGAGACG,-0.13
3,AACCGTGT,0.334
4,AGTGCCGG,0.00138
5,ATAGCAAG,0.0707
6,AGCTTGAT,-0.00237
7,CACTAAGC,-0.161
8,GCGTCAAC,0.179
9,CTTAAGAC,-0.0743
10,ATGCGCTA,-0.0733
11,CCGCGTAA,0.426
12,CATTGAGC,-0.131
13,TAGTCAAA,0.0135
14,TTACGGAA,0.122
15,ACGGTCCT,-0.195
16,CGAAGAGC,-0.12
17,CGATCTTA,0.0474
18,CAACTCAA,0.193
19,AACGATAT,0.162
20,CGTAAAAG,0.293
21,CGATGCGC,-0.0492
22,CTGAGGCA,-0.168
23,AAAATCGA,-0.034
24,GCGTCTGA,-0.103
25,AAAATCCG,-0.0373

row,Sequence,PBM E-score
1,ATACTATA,0.00481
2,CGGATTCC,-0.137
3,AGGTAACC,-0.0205
4,ACACCAAA,0.21
5,GCACGTGC,0.153
6,GCTGGAAC,-0.179
7,CGTCACGC,0.0476
8,AAAACAAA,0.272
9,AATAGTTG,0.123
10,GCATTTAC,0.351
11,CCCGATCC,-0.181
12,CAGAGGTC,-0.231
13,CTGATTCC,-0.264
14,GAGGGCGA,-0.347
15,AAGCACGA,0.121
16,CACGCCAC,0.00859
17,AGCCCACC,-0.319
18,GGGAAAAA,-0.0815
19,ACATTGAT,0.249
20,AGTTGCCC,-0.0979
21,AAGGCAAG,-0.22
22,AGGAAGTC,-0.212
23,AAGTCAGT,-0.101
24,AGTAGATA,0.156
25,GCCCGACC,-0.407

row,Sequence,PBM E-score
1,CGCGCCTC,-0.0944
2,AGTAATGA,0.149
3,CGAGGAGA,-0.261
4,ATCTGTGC,0.0427
5,ACAGCGCG,0.219
6,GATCATGC,-0.247
7,ACCTCGAC,0.0391
8,CTAGGGTA,-0.14
9,GTTCCAAA,0.0714
10,AGGACACC,-0.207
11,ATTCTATC,0.0639
12,AATCGGTG,0.00491
13,AATAGCAG,-0.137
14,GGCATATA,0.028
15,ACCGCTGA,-0.122
16,AGGTGGGA,-0.14
17,AATAAACA,0.336
18,AATGGGAG,-0.0589
19,CGGCGACA,-0.175
20,ACGTTGTG,0.245
21,ACGTCTCC,-0.0447
22,GAGAAATC,0.0319
23,GACTCCGA,-0.196
24,CCAAACGC,0.0373
25,TGGGTAAA,0.00159

row,Sequence,PBM E-score
1,TAAAAACA,0.358
2,GCACAGCC,-0.194
3,ACCCGATG,-0.102
4,GCCGACAA,0.056
5,ATCTTTGA,-0.0584
6,GTCTTGAA,-0.099
7,AAGACTAG,-0.115
8,CTTCAGCA,-0.0759
9,AAGCCCGT,-0.195
10,AAGGGAGC,-0.399
11,ACCTGAAA,-0.0624
12,ACTTCCGG,-0.0549
13,CAGCGGTC,-0.297
14,AAGCATGT,0.377
15,GATAAAGC,-0.125
16,CCCAGTCA,-0.178
17,CCGGATCC,-0.197
18,GGGTGTAC,-0.0223
19,ACCTGACA,-0.0216
20,ACTATGTG,0.108
21,ATTACTGG,0.0471
22,GTAGTCGA,0.0958
23,AGTACATG,0.415
24,AGCGCAGG,-0.254
25,ACAGTCTC,-0.0119

row,Sequence,PBM E-score
1,CGCGAAGC,0.107
2,CGGCCACG,-0.281
3,CGATCACG,0.125
4,CAGCAGGC,0.00631
5,CGGACTAC,0.015
6,ACTTAGAG,-0.0528
7,GCACCTTA,-0.071
8,CAGGATTC,-0.11
9,ACTAATGA,-0.0279
10,GGAATTGA,0.04
11,ATTGAAAC,0.15
12,TCCGCTCA,-0.319
13,CACTCGTA,-0.0159
14,ACGTATTA,0.345
15,GGGTTACA,0.218
16,CTCGCAGA,-0.269
17,ATCCTACC,-0.148
18,AGCCGGTG,-0.121
19,AGGTGATC,-0.00387
20,GAGGGTAC,-0.16
21,ACGTCCAT,0.128
22,TAGAACTA,0.0464
23,CGGCAATA,0.0744
24,AGCCAGGC,0.0148
25,CTGGATCA,-0.0322

row,Sequence,PBM E-score
1,AAATGGCG,-0.151
2,CCTACGTA,0.256
3,CGAATTCA,-0.0293
4,TGATCACA,0.0151
5,GGAGTTCA,-0.0503
6,AGCAATGA,-0.221
7,AGCAACGG,-0.0919
8,ATGAGGCG,-0.102
9,ATCGGTTG,-0.0211
10,CTGGGGGC,-0.366
11,ACGATAGT,0.215
12,TCGTCGCA,-0.128
13,AACGAACT,-0.0965
14,CCAAACTA,0.101
15,GAGCTGCC,-0.217
16,CGGAAAGA,-0.159
17,CCATAACC,-0.131
18,GACACTGC,-0.0263
19,ATTTTTAG,-0.134
20,ACTCACGA,0.0238
21,CTCGACAG,-0.162
22,AAGGAGCA,-0.237
23,CACAATCC,0.0822
24,CTGGTGTC,-0.237
25,CAGTCACA,0.0879

row,Sequence,PBM E-score
1,CTAGGGGA,-0.41
2,AATCTCAT,0.14
3,AAATGTCG,0.117
4,AGCCAAAT,-0.0214
5,CCGTCTGC,-0.0191
6,TATTACAA,0.416
7,ATGCGGTA,-0.152
8,ACAACGAG,0.197
9,ACTGTCCA,0.0356
10,CCAAGACG,-0.13
11,CTTGTCGA,0.204
12,AGCTGGTC,-0.0222
13,AACCTATA,0.11
14,CGTCTAAG,-0.123
15,ATCGACAG,-0.186
16,GTTGTCTA,0.227
17,CACACAGA,0.221
18,AGCCTAAG,-0.223
19,ACCTGGAT,-0.292
20,TATCGATA,0.0495
21,GGAGTAGA,-0.0798
22,ACGCGTAT,0.357
